Counter-ions that a name gives are not always drawn. Some of the results follow. Most values come without repeats; read them as rough.
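Note: screen of an FDA-approved drug library, NanoLuc luminescence read after lysing the treated cells, taken as a measure of mutant VPS33A protein stability.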

The test concerns HeLa VPS33A KO + NLuc-VPS33A R498W. Briefly: relative mutant VPS33A R498W amount (NanoLuc luminescence) vs DMSO (fraction of DMSO); HeLa model of a glycosaminoglycan (GAG) storage disease; KI is knock-in and KO knock-out; SDC1 is syndecan 1; higher = higher mutant VPS33A level. To be noted: 50 µM; 24 h.
`Nc1[nH]cnc2ncnc1-2` [Adenine]: the “relative mutant VPS33A R498W amount” value is 1.76.

On to `Nc1ccc(S(=O)(=O)Nc2nccs2)cc1` [Sulfathiazole], for which the “relative mutant VPS33A R498W amount” value was 1.16.

Consider `OC[C@H]1O[C@@H](OCCc2ccc(O)cc2)[C@H](O)[C@@H](O)[C@@H]1O` [Salidroside], for which the “relative mutant VPS33A R498W amount” value came out at 1.27.

For the molecule `Cc1nc(=O)c2cc(CN(C)c3ccc(C(=O)N[C@@H](CCC(=O)O)C(=O)O)s3)ccc2[nH]1` [Raltitrexed], the “relative mutant VPS33A R498W amount” value amounted to 1.18.

As for `CN1CCN2c3ncccc3Cc3ccccc3C2C1` (centres undefined) [Mirtazapine], the “relative mutant VPS33A R498W amount” value worked out at 1.24.

Regarding `CC1(C)S[C@@H]2[C@H](NC(=O)[C@H](NC(=O)N3CCN(S(C)(=O)=O)C3=O)c3ccccc3)C(=O)N2[C@H]1C(=O)O` [Mezlocillin Sodium], the “relative mutant VPS33A R498W amount” value was determined as 1.43.

Turning to `Cc1nnc(NS(=O)(=O)c2ccc(N)cc2)s1` [Sulfamethizole], the “relative mutant VPS33A R498W amount” value stood at 1.07.

`CC(=O)OCC(=O)NCCCOc1cccc(CN2CCCCC2)c1` [Roxatidine Acetate HCl]: the “relative mutant VPS33A R498W amount” value was 1.48.

Take `Cc1cn([C@H]2C=C[C@@H](CO)O2)c(=O)[nH]c1=O` [Stavudine (d4T)]: the “relative mutant VPS33A R498W amount” value came out at 1.26.

Take `COc1ccc(C(Cl)=C(c2ccc(OC)cc2)c2ccc(OC)cc2)cc1` [Chlorotrianisene]: the “relative mutant VPS33A R498W amount” value came to 1.13.

Turning to `CCCCNc1ccc(C(=O)OCCN(C)C)cc1` [Tetracaine HCl], the “relative mutant VPS33A R498W amount” value was 1.11.

With `Cc1cc2c(s1)Nc1ccccc1N=C2N1CCN(C)CC1` [Olanzapine], the “relative mutant VPS33A R498W amount” value is 0.993.

For the molecule `C[C@@H]1O[C@@H](O[C@@H]2[C@@H](O)[C@H](OCCc3ccc(O)c(O)c3)O[C@H](CO[C@@H]3O[C@H](CO)[C@@H](O)[C@H](O)[C@H]3O)[C@H]2OC(=O)/C=C/c2ccc(O)c(O)c2)[C@H](O)[C@H](O)[C@H]1O` [Echinacoside], the “relative mutant VPS33A R498W amount” value was 1.28.

On to `C1N2CN3CN1CN(C2)C3` [Methenamine], for which the “relative mutant VPS33A R498W amount” value was 1.17.

With `CC(C)(C)c1ccc(C(=O)CCCN2CCC(OC(c3ccccc3)c3ccccc3)CC2)cc1` [Ebastine], the “relative mutant VPS33A R498W amount” value is 0.0807.

On to `O=C(O)/C=C/c1ccc(Cn2ccnc2)cc1` [Ozagrel], for which the “relative mutant VPS33A R498W amount” value is 0.996.

For the molecule `C[N+](C)(C)CCOP(=O)(O)OP(=O)([O-])OC[C@H]1O[C@@H](n2ccc(N)nc2=O)[C@H](O)[C@@H]1O` [Citicoline (sodium salt)], the “relative mutant VPS33A R498W amount” value worked out at 1.32.

Turning to `NC[C@H]1CC[C@H](C(=O)O)CC1` [Tranexamic Acid], the “relative mutant VPS33A R498W amount” value was found to be 1.03.

`COc1ccc2cccc(CCNC(C)=O)c2c1` [Agomelatine]: the “relative mutant VPS33A R498W amount” value was 0.786.

Take `CC(=O)CCCCn1c(=O)c2c(ncn2C)n(C)c1=O` [Pentoxifylline]: the “relative mutant VPS33A R498W amount” value turned out to be 1.14.

For the molecule `O=C([O-])[O-].[Li+].[Li+]` [Lithium carbonate], the “relative mutant VPS33A R498W amount” value is 1.04.

For the molecule `N#C/C(=C1/SC[C@@H](c2ccc(Cl)cc2Cl)S1)n1ccnc1` [Luliconazole], the “relative mutant VPS33A R498W amount” value is 0.567.

Take `COc1cc([C@@H]2c3cc4c(cc3[C@@H](O[C@@H]3O[C@@H]5CO[C@@H](c6cccs6)O[C@H]5[C@H](O)[C@H]3O)[C@H]3COC(=O)[C@H]23)OCO4)cc(OC)c1O` [Teniposide]: the “relative mutant VPS33A R498W amount” value came to 6.6.

As for `O=c1c(-n2ccnn2)c[nH]n1-c1cc(N2CCOCC2)ncn1` [Molidustat (BAY85-3934)], the “relative mutant VPS33A R498W amount” value was found to be 1.44.

`Nc1nc2ccc(OC(F)(F)F)cc2s1` [Riluzole (hydrochloride)]: the “relative mutant VPS33A R498W amount” value came to 0.524.

`CC(C[N+](C)(C)C)OC(N)=O` (centres undefined) [Bethanechol chloride]: the “relative mutant VPS33A R498W amount” value is 1.36.

As for `CCOC(=O)C(C)(C)Oc1ccc(Cl)cc1` [Clofibrate], the “relative mutant VPS33A R498W amount” value turned out to be 0.991.

For `O=C(O)COCCN1CCN(C(c2ccccc2)c2ccc(Cl)cc2)CC1` (centres undefined) [Cetirizine], the “relative mutant VPS33A R498W amount” value stood at 1.07.

Consider `CCCN[C@H]1CCc2nc(N)sc2C1` [Pramipexole], for which the “relative mutant VPS33A R498W amount” value came to 1.75.

`O=c1cc(-c2ccc(O)cc2)oc2cc(O)cc(O)c12` [Apigenin]: the “relative mutant VPS33A R498W amount” value turned out to be 2.68.

For `O=C(c1cc(Cc2n[nH]c(=O)c3ccccc23)ccc1F)N1CCN(C(=O)C2CC2)CC1`, the “relative mutant VPS33A R498W amount” value was determined as 0.621.

For `CN(C)CCC(c1ccc(Cl)cc1)c1ccccn1` (centres undefined) [Chlorpheniramine Maleate], the “relative mutant VPS33A R498W amount” value worked out at 1.15.

For the molecule `Cc1onc(-c2ccccc2)c1C(=O)N[C@@H]1C(=O)N2[C@@H]1SC(C)(C)[C@@H]2C(=O)O` [Oxacillin sodium monohydrate], the “relative mutant VPS33A R498W amount” value amounted to 1.01.

As to `COC(=O)[C@@H]1CC2=CC(=O)CC[C@]2(C)[C@@]23O[C@@H]2C[C@@]2(C)[C@@H](CC[C@@]24CCC(=O)O4)[C@H]13` [Epleremone], the “relative mutant VPS33A R498W amount” value came out at 0.894.

Regarding `NC(N)=O`, the “relative mutant VPS33A R498W amount” value worked out at 1.27.

Consider `O=c1ccc2cc(O)c(O)cc2o1` [6,7-Dihydroxycoumarin], for which the “relative mutant VPS33A R498W amount” value amounted to 1.22.

Turning to `C/C=C1\[C@H]2C=C(C)C[C@]1(N)c1ccc(=O)[nH]c1C2` [(-)-Huperzine A], the “relative mutant VPS33A R498W amount” value came out at 1.38.

In the case of `CCCCOc1cc(C(=O)NCCN(CC)CC)c2ccccc2n1` [Dibucaine], the “relative mutant VPS33A R498W amount” value was 0.831.

Turning to `CCCCc1nc(Cl)c(CO)n1Cc1ccc(-c2ccccc2-c2nnn[nH]2)cc1` [Losartan], the “relative mutant VPS33A R498W amount” value came to 0.983.

The record behind these values is the supplement of paper PMC12355420.
